The list shows a part of the results, in another mix than the full data. The list includes weakly bound sequences.
Columns and labels:
Assay in all cases: protein-binding microarray (PBM)
Conditions in all cases: PBM: ~300 nM protein, 6 mM HEPES pH 7.8, 80 mM KCl, 0.5 mM EDTA, 0.5 mM EGTA, 6% glycerol, 35 ng/ul poly-dIdC, 1% milk, 1 h, room temperature; Ap Aiptasia and Nv Nematostella (sea anemones) / Co Capsaspora / Aq Amphimedon (sponge) / Dm Drosophila / Hu human; RHD is the Rel homology domain; high values mean tight binding; most listed sequences are background and not binding sites; double strand, one strand shown
GST-Ap-NF-kB RHD = target: T1, GST-Ap-NF-kB RHD (UniProt A0A913YAJ5)
T1 sequence: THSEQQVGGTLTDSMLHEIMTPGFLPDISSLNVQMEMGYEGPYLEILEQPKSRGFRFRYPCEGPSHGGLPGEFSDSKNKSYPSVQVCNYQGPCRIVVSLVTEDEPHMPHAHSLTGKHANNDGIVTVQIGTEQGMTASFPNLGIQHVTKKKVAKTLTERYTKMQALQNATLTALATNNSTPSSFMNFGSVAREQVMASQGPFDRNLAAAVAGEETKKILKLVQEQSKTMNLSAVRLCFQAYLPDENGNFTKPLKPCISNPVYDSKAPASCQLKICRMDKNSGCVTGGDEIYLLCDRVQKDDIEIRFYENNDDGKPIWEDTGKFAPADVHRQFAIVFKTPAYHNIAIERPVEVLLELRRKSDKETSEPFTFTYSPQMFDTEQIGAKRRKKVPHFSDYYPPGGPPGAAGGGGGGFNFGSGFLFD

[1] = target: T2, GST-Nv-NF-kB (Cys allele) (UniProt E5G601)
T2 sequence: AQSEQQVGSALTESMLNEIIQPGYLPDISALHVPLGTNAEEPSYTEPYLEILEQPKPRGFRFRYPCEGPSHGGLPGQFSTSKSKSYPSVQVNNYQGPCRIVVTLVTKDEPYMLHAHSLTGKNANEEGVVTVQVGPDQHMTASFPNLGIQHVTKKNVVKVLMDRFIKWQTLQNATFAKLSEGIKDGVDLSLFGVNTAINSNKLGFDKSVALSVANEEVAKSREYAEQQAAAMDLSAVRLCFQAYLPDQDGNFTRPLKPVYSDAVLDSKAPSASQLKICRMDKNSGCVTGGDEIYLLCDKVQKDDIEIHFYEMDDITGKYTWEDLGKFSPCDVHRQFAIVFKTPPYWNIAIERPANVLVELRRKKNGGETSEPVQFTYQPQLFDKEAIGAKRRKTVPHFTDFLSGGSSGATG

GST-Co-NF-kB = target: T3, GST-Co-NF-kB (UniProt F1ARL5)
T3 sequence: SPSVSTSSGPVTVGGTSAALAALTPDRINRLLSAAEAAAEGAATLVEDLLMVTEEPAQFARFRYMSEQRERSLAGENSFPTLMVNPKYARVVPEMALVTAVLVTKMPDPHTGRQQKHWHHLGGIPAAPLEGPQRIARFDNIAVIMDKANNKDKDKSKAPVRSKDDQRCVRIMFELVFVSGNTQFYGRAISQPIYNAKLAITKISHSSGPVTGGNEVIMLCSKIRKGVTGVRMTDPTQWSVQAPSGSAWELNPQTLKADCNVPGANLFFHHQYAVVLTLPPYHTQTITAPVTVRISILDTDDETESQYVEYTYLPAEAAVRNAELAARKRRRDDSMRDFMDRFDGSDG

GST-Dm-Relish = target: T4, GST-Dm-Relish (UniProt Q94527)
T4 sequence: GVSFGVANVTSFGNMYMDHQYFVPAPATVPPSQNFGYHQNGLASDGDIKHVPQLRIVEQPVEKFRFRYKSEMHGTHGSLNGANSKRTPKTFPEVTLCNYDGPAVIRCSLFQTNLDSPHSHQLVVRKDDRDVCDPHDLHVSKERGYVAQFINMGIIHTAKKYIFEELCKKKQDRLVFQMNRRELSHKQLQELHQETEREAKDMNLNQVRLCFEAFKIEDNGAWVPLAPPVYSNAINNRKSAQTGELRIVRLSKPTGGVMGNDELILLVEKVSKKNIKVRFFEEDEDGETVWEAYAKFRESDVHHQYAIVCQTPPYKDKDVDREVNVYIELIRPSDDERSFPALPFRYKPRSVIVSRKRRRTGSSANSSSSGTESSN

GST-Aq-NF-kB = target: T5, GST-Aq-NF-kB (UniProt A9Y5G7)
T5 sequence: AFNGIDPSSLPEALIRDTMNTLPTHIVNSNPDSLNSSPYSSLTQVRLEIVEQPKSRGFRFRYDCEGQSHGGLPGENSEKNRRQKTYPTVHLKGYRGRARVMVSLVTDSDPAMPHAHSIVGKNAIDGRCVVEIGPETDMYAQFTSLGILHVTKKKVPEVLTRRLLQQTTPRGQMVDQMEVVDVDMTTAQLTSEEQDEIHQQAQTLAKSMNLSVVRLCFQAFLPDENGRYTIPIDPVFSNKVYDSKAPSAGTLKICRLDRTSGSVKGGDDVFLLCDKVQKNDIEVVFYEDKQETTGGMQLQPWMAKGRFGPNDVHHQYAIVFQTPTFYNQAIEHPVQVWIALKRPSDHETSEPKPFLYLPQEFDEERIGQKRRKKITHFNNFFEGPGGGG

How did the binding signal (GST-Ap-NF-kB RHD) turn out when “CCGATTAACATCAACTTCTTGGATGATGTTAATCGGGTCTTGATTCGCTTGACGCTGCTG” was run?
Its binding signal is -0.421 z-score.

What about the binding signal [1] of the same sequence?
Its binding signal is 0.0331 z-score.

And the binding signal (GST-Co-NF-kB)?
The binding signal was 0.131 z-score.

What about the binding signal (GST-Dm-Relish) of the same sequence?
Its binding signal is -0.29 z-score.

And the binding signal (GST-Aq-NF-kB)?
The binding signal was -0.382 z-score.

For “CCGATTAACATCATAGTCGAACTTGATGTTAATCGGGTCTTGATTCGCTTGACGCTGCTG”, which binding signal (GST-Ap-NF-kB RHD) is on record?
The binding signal was -0.716 z-score.

And the binding signal [1]?
Its binding signal is -0.0298 z-score.

What about the binding signal (GST-Co-NF-kB) of the same sequence?
The binding signal was -0.674 z-score.

What about the binding signal (GST-Dm-Relish) of the same sequence?
Its binding signal is -0.964 z-score.

And the binding signal (GST-Aq-NF-kB)?
Its binding signal is -0.678 z-score.

How did the binding signal (GST-Ap-NF-kB RHD) turn out when “CCGATTAACATCAGCGCTCGGCCTGATGTTAATCGGGTCTTGATTCGCTTGACGCTGCTG” was run?
Its binding signal is 0.343 z-score.

What about the binding signal [1] of the same sequence?
Its binding signal is 0.0426 z-score.

And the binding signal (GST-Co-NF-kB)?
The binding signal was -0.93 z-score.

And the binding signal (GST-Dm-Relish)?
The binding signal was -0.223 z-score.

What about the binding signal (GST-Aq-NF-kB) of the same sequence?
The binding signal was -0.168 z-score.

What does the source list for “CCGATTAACATCAGAATATTCCATGATGTTAATCGGGTCTTGATTCGCTTGACGCTGCTG”?
binding signal (GST-Ap-NF-kB RHD): 0.37 z-score; binding signal [1]: -0.588 z-score; binding signal (GST-Co-NF-kB): 0.0694 z-score; binding signal (GST-Dm-Relish): -0.0793 z-score; binding signal (GST-Aq-NF-kB): -0.0722 z-score

For “CCGATTAACATCAAGAAAAGCTATGATGTTAATCGGGTCTTGATTCGCTTGACGCTGCTG”, which binding signal (GST-Ap-NF-kB RHD) is on record?
Its binding signal is -0.654 z-score.

What about the binding signal [1] of the same sequence?
The binding signal was 0.151 z-score.

What about the binding signal (GST-Co-NF-kB) of the same sequence?
The binding signal was 0.303 z-score.

And the binding signal (GST-Dm-Relish)?
The binding signal was -0.513 z-score.

What about the binding signal (GST-Aq-NF-kB) of the same sequence?
The binding signal was -0.404 z-score.

With “CCGATTAACATCAGTAATACTATTGATGTTAATCGGGTCTTGATTCGCTTGACGCTGCTG” as the sequence, how does the binding signal (GST-Ap-NF-kB RHD) read?
The binding signal was -0.672 z-score.

And the binding signal [1]?
The binding signal was -0.0715 z-score.

What about the binding signal (GST-Co-NF-kB) of the same sequence?
Its binding signal is 0.0457 z-score.

And the binding signal (GST-Dm-Relish)?
Its binding signal is -0.0364 z-score.

And the binding signal (GST-Aq-NF-kB)?
The binding signal was -0.216 z-score.

What does the source list for “CCGATTAACATCAGAAGTCATACTGATGTTAATCGGGTCTTGATTCGCTTGACGCTGCTG”?
binding signal (GST-Ap-NF-kB RHD): -0.335 z-score; binding signal [1]: -1.14 z-score; binding signal (GST-Co-NF-kB): -0.439 z-score; binding signal (GST-Dm-Relish): -1.08 z-score; binding signal (GST-Aq-NF-kB): -0.664 z-score

For “CCGATTAACATCACGACAGTAAATGATGTTAATCGGGTCTTGATTCGCTTGACGCTGCTG”, which binding signal (GST-Ap-NF-kB RHD) is on record?
The binding signal was 0.302 z-score.

What about the binding signal [1] of the same sequence?
The binding signal was 0.725 z-score.

What about the binding signal (GST-Co-NF-kB) of the same sequence?
Its binding signal is 0.408 z-score.

And the binding signal (GST-Dm-Relish)?
Its binding signal is 0.31 z-score.

What about the binding signal (GST-Aq-NF-kB) of the same sequence?
The binding signal was -0.0331 z-score.

How did the binding signal (GST-Ap-NF-kB RHD) turn out when “CCGATTAACATCAGTTTCCCCCATGATGTTAATCGGGTCTTGATTCGCTTGACGCTGCTG” was run?
The binding signal was 6.91 z-score.

What about the binding signal [1] of the same sequence?
The binding signal was 6.51 z-score.

What about the binding signal (GST-Co-NF-kB) of the same sequence?
Its binding signal is 10.6 z-score.

And the binding signal (GST-Dm-Relish)?
Its binding signal is 2.94 z-score.

And the binding signal (GST-Aq-NF-kB)?
The binding signal was 5.09 z-score.

For “CCGATTAACATCATGAGTTCCAATGATGTTAATCGGGTCTTGATTCGCTTGACGCTGCTG”, which binding signal (GST-Ap-NF-kB RHD) is on record?
The binding signal was -0.449 z-score.

What about the binding signal [1] of the same sequence?
Its binding signal is -0.325 z-score.

And the binding signal (GST-Co-NF-kB)?
Its binding signal is -0.199 z-score.

And the binding signal (GST-Dm-Relish)?
The binding signal was -1.01 z-score.

What about the binding signal (GST-Aq-NF-kB) of the same sequence?
The binding signal was -0.582 z-score.

How did the binding signal (GST-Ap-NF-kB RHD) turn out when “CCGATTAACATCAAAGTTTAGTCTGATGTTAATCGGGTCTTGATTCGCTTGACGCTGCTG” was run?
Its binding signal is -0.239 z-score.

What about the binding signal [1] of the same sequence?
Its binding signal is -0.215 z-score.

What about the binding signal (GST-Co-NF-kB) of the same sequence?
Its binding signal is -0.952 z-score.

What about the binding signal (GST-Dm-Relish) of the same sequence?
Its binding signal is -0.448 z-score.

What about the binding signal (GST-Aq-NF-kB) of the same sequence?
Its binding signal is -0.513 z-score.
